{
  "source": "PubChem BioAssay AID902",
  "about": "(National Center for Advancing Translational Sciences (NCATS), 2007)",
  "note": "The campaign covered roughly 130,000 compounds. About 1,900 (1.5%) were called active. Inconclusive means that the source gave no clear call. Such entries were picked first, then a sample of the others. Calls follow the shape of the dose curve; as a rule, active = well fitted cell-killing curve with a large enough effect; inconclusive = small, poorly fitted or top-dose-only effect; inactive = no such curve, though single readings can be large or run the other way. Where the call is inconclusive, the potency comes from a doubtful curve fit. % is scaled to controls: 0 for no effect and ±100 for the full control effect; potency is read from the fitted curve at half-maximal effect; tags tell the direction and shape of the fitted curve.",
  "data": [
    {"assay": "qHTS Screen for Compounds that Selectively Target Cancer Cells with p53 Mutations: Cytotoxicity of p53ts Cells at the Nonpermissive Temperature; also: nearly all actives have a fitted effect of over 55% in size", "conditions": "H1299-p53A138V viability at 39C, ATP luminescence, 24 h; activity change, negative = cell killing: at 46.1 µM (top of the series)", "values": [
      {"smiles": "c1ccc(Nc2nc(-c3cccnc3)cs2)nc1", "Potency": "active: 15.8 µM"},
      {"smiles": "O=C(NCCc1ccccc1)c1cnn2c(C(F)F)cc(C3CC3)nc12", "activity change, negative = cell killing": "inactive: 12.4%"},
      {"smiles": "COc1ccc(-c2nnc(SCC(=O)Nc3cccc(C(F)(F)F)c3)s2)cc1", "Potency": "inconclusive: 25.1 µM [cytotoxic, partial curve]"},
      {"smiles": "O=C(CSc1nnc(-c2ccccc2Cl)o1)N1CCCc2ccccc21", "Potency": "inconclusive: 20 µM [cytotoxic, single point]"},
      {"smiles": "COc1cccc(NS(=O)(=O)c2ccc3c(c2)n(C)c(=O)n3C)c1", "Potency": "inconclusive: 3.16 µM [cytotoxic, partial curve]"},
      {"smiles": "Cc1ccc(CN2CCC(CNC(=O)c3cnn(-c4ccccc4Cl)c3C3CCN(C(=O)OC(C)(C)C)CC3)CC2)cc1", "Potency": "inconclusive: 31.6 µM [cytotoxic, single point]"},
      {"smiles": "Cc1nn(C)cc1/C=C/C(=O)c1cccs1", "Potency": "inconclusive: 15.8 µM [cytotoxic, single point]"},
      {"smiles": "COc1ccccc1N1CCN(C(CNC(=O)C(=O)NCc2ccc(C)cc2)c2cccnc2)CC1", "note": "(centres undefined)", "Potency": "inconclusive: 1 µM [cytotoxic, full curve]"},
      {"smiles": "O=c1c(-c2cccs2)nc2cnc(N3CCNCC3)nc2n1Cc1cccs1", "Potency": "inconclusive: 25.1 µM [cytotoxic, single point]"},
      {"smiles": "CNC(=O)CN1C(=O)c2cccnc2Sc2ccccc21", "activity change, negative = cell killing": "inactive: 1.55%"},
      {"smiles": "Cc1nc2c(C(=O)NCCc3ccc(Cl)cc3)c[nH]n2c(=O)c1Cc1ccc(Cl)cc1", "Potency": "inconclusive: 15.8 µM [cytotoxic, single point]"},
      {"smiles": "CCCCOc1ccc(CN2C(=O)C(=O)c3cc(Br)cc(C)c32)cc1OC", "Potency": "active: 7.94 µM"},
      {"smiles": "Cc1nn(-c2ccc(F)cc2)c2sc(C(=O)N3CCCCCC3)cc12", "activity change, negative = cell killing": "inactive: -9.74%"},
      {"smiles": "COC(=O)c1c(-c2cccs2)csc1NC(=O)COc1c(C)ccc(C)c1C", "activity change, negative = cell killing": "inactive: 10.9%"},
      {"smiles": "CCCCCSc1nc2sc3c(c2c(=O)n1-c1ccccc1)CCN(C(C)=O)C3", "Potency": "active: 12.6 µM"},
      {"smiles": "CCn1cnc2cc(NCc3nc4ccccc4n3C)ccc21", "Potency": "inconclusive: 10 µM [cytotoxic, partial curve]"},
      {"smiles": "Cn1nnnc1SCCCNCc1ccccc1OCc1ccccc1Cl", "Potency": "inconclusive: 10 µM [cytotoxic, partial curve]"},
      {"smiles": "CC[C@@H](C)[C@H](NC(=O)OC(C)(C)C)c1nnc(S(=O)(=O)Cc2cc(C)ccc2C)o1", "Potency": "inconclusive: 31.6 µM [cytotoxic, single point]"},
      {"smiles": "COC(=O)[C@@]1(Cc2ccc(F)cc2)[C@H]2c3cc(C(=O)N(C)C)n(Cc4ccccc4)c3C[C@H]2CN1C(=O)c1ccccc1", "activity change, negative = cell killing": "inactive: 48%"},
      {"smiles": "Cc1onc(-c2ccccc2)c1C(=O)N1CCCN(C(=O)c2c(-c3ccccc3)noc2C)CC1", "activity change, negative = cell killing": "inactive: 7.03%"},
      {"smiles": "Cc1ccc(OC[C@H](O)[C@H](C)NC(C)C)c2c1CCC2", "Potency": "inconclusive: 10 µM [cytotoxic, partial curve]"},
      {"smiles": "O=C(Cc1cc(=O)[nH]c(=O)[nH]1)N1CCN(C(=O)c2ccco2)CC1", "Potency": "inconclusive: 2 µM [cytotoxic, full curve, poor fit]"},
      {"smiles": "COc1ccccc1NC(=O)CN(C)S(=O)(=O)c1ccc2c(c1)c(=O)n(C)c(=O)n2C", "activity change, negative = cell killing": "inactive: 3.13%"},
      {"smiles": "Cc1ccc(CN2CCC(CNC(=O)Nc3cccc(Cl)c3C)C2)cc1", "note": "(centres undefined)", "Potency": "inconclusive: 25.1 µM [cytotoxic, single point]"},
      {"smiles": "CCc1ccccc1NC(=O)C1CCN(S(=O)(=O)c2ccc3[nH]c(=O)ccc3c2)CC1", "Potency": "inconclusive: 3.98 µM [cytotoxic, single point]"},
      {"smiles": "CC(C)c1ccc(NC(=O)c2ccc(F)c(S(=O)(=O)N3CCCCCC3)c2)cc1", "Potency": "inconclusive: 1.26 µM [cytotoxic, full curve]"},
      {"smiles": "CN(C)c1cc(-c2cccc(NS(C)(=O)=O)c2)ncn1", "Potency": "inconclusive: 10 µM [cytotoxic, partial curve]"},
      {"smiles": "CN(C)c1ccc(-c2cc(NCc3cccnc3)ncn2)cc1", "Potency": "active: 7.94 µM"},
      {"smiles": "COc1ccc(-n2c(=O)c3c(c4cc(OC)ccc4n3C)n(Cc3cc(C)ccc3C)c2=O)cc1", "Potency": "inconclusive: 0.316 µM [cytotoxic, full curve, poor fit]"},
      {"smiles": "Cc1cc(C(=O)OCC(=O)N2CCc3ccccc32)c(C)o1", "Potency": "inconclusive: 12.6 µM [cytotoxic, single point]"},
      {"smiles": "CC(C)NCC(O)COc1ccc(COCCOC(C)C)cc1", "note": "(centres undefined)", "activity change, negative = cell killing": "inactive: 10.9%"},
      {"smiles": "COC(=O)Nc1nc2c(s1)CCCC2", "activity change, negative = cell killing": "inactive: -6.96%"},
      {"smiles": "CCC1CCCCN1CCCNC(=O)COc1cc(=O)n(C)c2ccccc12", "note": "(centres undefined)", "activity change, negative = cell killing": "inactive: -21%"},
      {"smiles": "O=C(CN1C(=O)COc2ccc(S(=O)(=O)N3CCCCCC3)cc21)NCCc1ccccc1", "Potency": "inconclusive: 1.26 µM [cytotoxic, full curve, poor fit]"},
      {"smiles": "CC(=O)c1c(N2CCN(Cc3ccccc3)CC2)[nH]c(-c2ccccc2)nc1=S", "Potency": "inconclusive: 15.8 µM [cytotoxic, single point]"},
      {"smiles": "Cc1ccc2nc(-c3ccc4c(c3)OCCO4)cc(C(=O)O)c2c1", "Potency": "active: 10 µM"},
      {"smiles": "CCCN1CCN(CCNC(=O)Nc2ccccc2OCC)CC1", "activity change, negative = cell killing": "inconclusive: -30.6% [cytotoxic]"},
      {"smiles": "COc1cccc(Cn2c(=O)c(CCc3ccccc3)nc3cnc(N4CCNCC4)nc32)c1", "Potency": "inconclusive: 20 µM [cytotoxic, single point]"},
      {"smiles": "CCCCn1c(N2CCC(Cc3ccccc3)CC2)nc2c1c(=O)[nH]c(=O)n2C", "Potency": "inconclusive: 31.6 µM [cytotoxic, single point]"},
      {"smiles": "O=c1/c(=C/c2ccccn2)sc2nc3ccccc3n12", "Potency": "inconclusive: 31.6 µM [cytotoxic, single point]"},
      {"smiles": "CCCc1nc(SCC(=O)N2CCC(Cc3ccccc3)CC2)c2c(=O)n(C)c(=O)n(C)c2n1", "Potency": "inconclusive: 31.6 µM [cytotoxic, single point]"},
      {"smiles": "COc1cc(-c2oc3ccc(C)cc3c(=O)c2O)cc(OC)c1OC", "Potency": "inconclusive: 15.8 µM [cytotoxic, partial curve]"},
      {"smiles": "O=C(CSC1=Nc2ccccc2N=C(c2ccc(F)cc2)C1)Nc1ccc(Cl)cc1", "Potency": "inconclusive: 0.158 µM [cytotoxic, full curve, poor fit]"},
      {"smiles": "COc1ccc(Nc2ncnc3onc(C)c23)c(OC)c1", "activity change, negative = cell killing": "inactive: -0.138%"},
      {"smiles": "COc1cccc(NC(=O)c2c(N3CCCC3=O)c3cc(C)ccc3n2C)c1", "activity change, negative = cell killing": "inactive: -9.65%"},
      {"smiles": "COc1ccc(-c2cc(OC)c3c(C)oc(C)c3c(=O)c2)cc1OC", "activity change, negative = cell killing": "inactive: -7.76%"},
      {"smiles": "CCOc1ccc(NC(=O)c2cc(C)nc3c2c(C)nn3-c2cccc(F)c2)cc1", "activity change, negative = cell killing": "inactive: 8.6%"},
      {"smiles": "CCCCC(=O)Nc1c(C(=O)N2CCN(c3ccccc3)CC2)oc2ccccc12", "Potency": "active: 15.8 µM"},
      {"smiles": "NC(=O)COc1ccc(NC(=O)OCc2ccccc2)cc1", "Potency": "inconclusive: 10 µM [cytotoxic, partial curve]"},
      {"smiles": "Cc1ccc(-c2nc(CS(=O)CC(=O)N3CCN(c4ccc(F)cc4)CC3)c(C)o2)cc1", "note": "(centres undefined)", "Potency": "inconclusive: 10 µM [cytotoxic, single point]"},
      {"smiles": "Cc1cc(C(=O)N(C)C)sc1-c1ccccc1", "activity change, negative = cell killing": "inactive: -2.02%"},
      {"smiles": "Cc1nc(N2CCOCC2)c2nc(-c3ccccc3)n(CC(C)(C)CN(C)C)c2n1", "activity change, negative = cell killing": "inactive: 3.31%"},
      {"smiles": "COC(=O)c1sccc1S(=O)(=O)N1CCN(c2ccc(Cl)cc2)CC1", "Potency": "inconclusive: 5.01 µM [cytotoxic, partial curve]"},
      {"smiles": "Cc1cccc(N2CCN(C(=O)c3cccn3-c3nnc(N4CCCCC4)s3)CC2)c1C", "activity change, negative = cell killing": "inactive: 7.04%"},
      {"smiles": "Cc1cc(C)c(C#N)c(SCC(=O)Nc2ccccc2C(N)=O)n1", "Potency": "active: 2 µM"},
      {"smiles": "O=c1c2c3c(sc2ncn1-n1cccc1)CCCCC3", "Potency": "inconclusive: 17.8 µM [cytotoxic, partial curve, poor fit]"},
      {"smiles": "Cn1c(NC(=O)c2cccnc2)nc2ccccc21", "Potency": "inconclusive: 3.98 µM [cytotoxic, partial curve]"},
      {"smiles": "Cc1ccc(NC(=O)c2c(C)oc3ccc(O)c(CN(C)Cc4ccccc4)c23)c(C)c1", "Potency": "inconclusive: 1.58 µM [cytotoxic, partial curve, poor fit]"},
      {"smiles": "CC[C@]1(O)C[C@@H]2CN(CCc3c([nH]c4ccccc34)[C@](C(=O)OC)(c3cc4c(cc3OC)N(C)[C@H]3[C@](O)(C(=O)OC)[C@@H](C(=O)OC)[C@@]5(CC)C=CCN6CC[C@@]43[C@@H]65)C2)C1", "Potency": "inconclusive: 2.51 µM [cytotoxic, full curve, poor fit]"},
      {"smiles": "COc1ccc(NC(=O)CCn2c(-c3ccc(F)cc3)cc(C(C)=O)c2C)c(OC)c1", "activity change, negative = cell killing": "inactive: 26.2%"},
      {"smiles": "CCc1ccc2nc(NC(=O)CSCc3c(C)noc3C)sc2c1", "Potency": "inconclusive: 12.6 µM [cytotoxic, partial curve]"},
      {"smiles": "NC1=NC(S)C2N=CN=C2N1", "note": "(centres undefined)", "Potency": "inconclusive: 7.94 µM [cytotoxic, full curve]"},
      {"smiles": "O=C1C(Cl)=C(NC2CCc3ccccc32)C(=O)c2ncccc21", "note": "(centres undefined)", "Potency": "active: 6.31 µM"},
      {"smiles": "CCc1ccc(-n2nc(CO)c(C(=O)NCc3cccnc3)n2)cc1", "activity change, negative = cell killing": "inconclusive: -32.1% [cytotoxic]"},
      {"smiles": "Cc1cc(C)cc(NC(=O)CCc2c(C)nc3c(c2C)c(=O)n(C)c(=O)n3C)c1", "activity change, negative = cell killing": "inactive: 2.19%"},
      {"smiles": "Cc1ccc(CCNC(=O)CCn2nc(-c3ccc(Cl)cc3)ccc2=O)cc1", "Potency": "inconclusive: 2.51 µM [cytotoxic, partial curve]"},
      {"smiles": "COc1ccc(-c2ccc(SCC(=O)NCc3ccco3)nn2)cc1OC", "Potency": "inconclusive: 31.6 µM [cytotoxic, single point]"},
      {"smiles": "CCOCCCn1c(=N)c(C(=O)NC(C)c2ccccc2)cc2c(=O)n3cccc(C)c3nc21", "note": "(centres undefined)", "Potency": "inconclusive: 25.1 µM [cytotoxic, single point]"},
      {"smiles": "Cc1ccc2occ(CC(=O)Nc3ccc(Cl)c(C(F)(F)F)c3)c2c1", "Potency": "inconclusive: 31.6 µM [cytotoxic, single point]"}
    ]}
  ]
}
